# Experimental data reported in PubChem BioAssay AID1345083 (National Center for Advancing Translational Sciences (NCATS), 2018).
# Out of some 94,000 compounds screened, about 6,200 (6.6%) were called active. The shares of active, inactive and inconclusive entries below differ from those in the screen. Calls follow the shape of the dose curve; as a rule, active = well fitted inhibition curve with a large enough effect; inconclusive = small, poorly fitted or top-dose-only effect; inactive = flat fitted curve, though single readings scatter. Where the call is inconclusive, the potency comes from a doubtful curve fit.
# Test: Cytotoxic Profiling in HEK 293 Cell Line of Diverse Libraries Using Quantitative High-Throughput Screening; also: nearly all actives have a fitted effect of over 60% in size
# Conditions: HEK 293 viability, ATP luminescence (CellTiter-Glo), 48-72 h; activity change, negative = cytotoxicity: at 115 µM (top of the series) unless noted; series mostly up to 115 µM
# How it was run: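 qHTS cytotoxicity; HEK 293, 250 cells/well; compound pinned; 48 or 72 hr, 37 degree Celsius, 5% CO2, 95% humidity; CellTiter-Glo, 10 min RT; luminescence (ATP).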
# % is scaled to controls: 0 for no effect and ±100 for the full control effect; potency is read from the fitted curve at half-maximal effect; tags tell the direction and shape of the fitted curve.
Compound,Potency,"activity change, negative = cytotoxicity"
CC(C)C(=O)N1CCN(c2nc3c(s2)CC(C(=O)NCc2ccco2)CC3)CC1 (stereo unspecified),"inconclusive: 100 µM [inhibitor, single point]",–
CCc1ccccc1S(=O)(=O)N1CCN(C2(CC)CCN(C(=O)NC)C2)CC1 (stereo unspecified),"inconclusive: 44.7 µM [inhibitor, partial curve, poor fit]",–
O=C(c1ccn[nH]1)N1CCCCC1c1nc(CCOCC2CCCC2)no1 (stereo unspecified),"inconclusive: 63.1 µM [inhibitor, partial curve, poor fit]",–
COc1ccccc1OCc1cc(C(=O)NC[C@H]2C[C@H]3C=C[C@H]2C32CC2)n[nH]1,"inconclusive: 89.1 µM [inhibitor, single point]",–
CN1C(=O)Cc2cc(C(=O)N3CCN(c4ccccc4Cl)CC3)ccc21,"inconclusive: 44.7 µM [inhibitor, partial curve, poor fit]",–
O=C(NCc1cccs1)c1ccc2nnc(-c3ccc(OC(F)(F)F)cc3)n2c1,"inconclusive: 89.1 µM [inhibitor, partial curve, poor fit]",–
CN(Cc1cccnc1)c1ccc2ncc(Nc3cccc(N[S+](C)(=O)[O-])c3)n2n1,–,inactive: -15.3% [at 172 µM]
CSc1cccc(NC(=O)N2CCC(c3cc(-c4cccc(C)c4)n[nH]3)CC2)c1,active: 44.7 µM,–
CCCCNC(=O)c1cccc(CN2C(=O)CC(c3ccccc3C)C(C(=O)OCC)=C2C)c1 (stereo unspecified),"inconclusive: 44.7 µM [inhibitor, partial curve, poor fit]",–
Cn1ncc2c(C(=O)NCc3ccc(C(F)(F)F)cc3)cc(C3C=C(C(F)(F)F)C=CC3)nc21 (stereo unspecified),–,inactive: -19.9%
COc1ccc(CC(=O)N2CCC3(CC2)CC(c2cccc(C(F)(F)F)c2)=NO3)cc1,active: 39.8 µM,–
Cc1cc(C(=O)N2CCCC(CCc3c(F)cccc3F)C2)nc(C)n1 (stereo unspecified),"inconclusive: 50.1 µM [inhibitor, partial curve, poor fit]",–
Cc1cccc(C(C(=O)NCc2cc(-c3cccc(F)c3)no2)N(C)C)c1 (stereo unspecified),"inconclusive: 56.2 µM [inhibitor, partial curve, poor fit]",–
O=C(Nc1ccc2c(c1)CN(Cc1ccc3c(c1)OCO3)C(=O)CO2)c1ccc(F)cc1,"inconclusive: 79.4 µM [inhibitor, partial curve, poor fit]",–
CCCC1C=CCN1C(=O)c1cc(-c2ccncc2)nc2ccccc12 (stereo unspecified),"inconclusive: 50.1 µM [inhibitor, partial curve, poor fit]",–
O=C1Nc2ccccc2CC12CCN(CC1CCCCC1)C2 (stereo unspecified),"inconclusive: 89.1 µM [inhibitor, partial curve]",–
